According to PMC2758704:
Results are given in words; binding and its absence hold for the method and conditions named. Binding seen in cells or lysates may run through a third protein. Some results given as binding are weak or reduced against the parent protein; the word gives no strength.

Protein sequences, listed by entry. Tags and fused reporters are not part of them.
UniProt P09211: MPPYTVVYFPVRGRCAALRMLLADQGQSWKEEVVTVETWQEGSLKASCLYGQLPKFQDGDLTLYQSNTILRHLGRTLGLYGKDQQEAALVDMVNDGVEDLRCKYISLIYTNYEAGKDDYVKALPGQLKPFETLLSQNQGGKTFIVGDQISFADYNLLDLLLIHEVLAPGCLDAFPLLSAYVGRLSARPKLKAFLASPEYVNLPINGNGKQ
UniProt P18754: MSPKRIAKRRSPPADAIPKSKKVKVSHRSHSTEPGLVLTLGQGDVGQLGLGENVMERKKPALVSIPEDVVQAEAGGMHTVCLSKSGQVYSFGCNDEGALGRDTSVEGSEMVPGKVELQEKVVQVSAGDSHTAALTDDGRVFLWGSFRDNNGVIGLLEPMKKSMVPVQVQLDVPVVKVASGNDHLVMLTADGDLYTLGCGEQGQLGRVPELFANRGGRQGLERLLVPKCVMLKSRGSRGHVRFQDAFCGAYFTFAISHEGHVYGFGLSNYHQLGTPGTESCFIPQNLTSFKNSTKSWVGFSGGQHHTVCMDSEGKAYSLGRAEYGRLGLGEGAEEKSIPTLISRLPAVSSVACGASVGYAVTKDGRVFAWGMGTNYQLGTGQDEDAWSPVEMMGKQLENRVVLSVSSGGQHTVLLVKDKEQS

Assays:
[1] = molecular target: N-6His-GSTP1 recombinant protein (human) (UniProt P09211); assay: pull-down; Ni-NTA agarose beads coupled to 4 µg of recombinant N-6His GSTP1 or N-6His RCC1; 35S-labelled in vitro translated E7 proteins added; SDS-PAGE and autoradiography; only the target purified
[2] = molecular target: N-6His-RCC1 recombinant protein (regulator of chromosome condensation 1) (UniProt P18754); assay: as above

B1: radiolabeled IVT HPV-33 E7 (protein, UniProt P06429 1-97)
chain: MRGHKPTLKEYVLDLYPEPTDLYCYEQLSDSSDEDEGLDRPDGQAQPATADYYIVTCCHTCNTTVRLCVNSTASDLRTIQQLLMGTVNIVCPTCAQQ
modifications: 35S-cysteine label
Question: What does the source list for B1?
Answer: binding [1]: binds; binding [2]: no binding
